The source of these data is the antibiotic and cytotoxicity screens of Wong et al. (2023).

The structures appear in SMILES notation. The list shows a part of the results.

In assay [1] the test system is HSkMC (human skeletal muscle cells). Description: cytotoxicity call (relative viability < 0.9). Conditions: 10 µM.
Assay [2] relates to S. aureus RN4220. Kind of assay: growth inhibition call (relative growth <= 0.2). Conditions: 50 µM.

As to `C[C@@H]1CCCCO[C@@H](CN(C)Cc2ccc3c(c2)OCO3)[C@H](C)CN([C@@H](C)CO)C(=O)c2cc(NS(=O)(=O)c3ccccc3)ccc2O1`, the cytotoxicity call in assay [1] was “inactive”. The growth inhibition call in assay [2] was “inactive”.

Take `COC(=O)COc1nsnc1N1CCOCC1`: the cytotoxicity call in assay [1] is “inactive”. Further, the growth inhibition call in assay [2] is “inactive”.

Turning to `COc1ccc(NC(=O)Nc2ccc3c(c2)CC(=O)N([C@@H](C)CO)C[C@H](C)[C@@H](CN(C)C(=O)Nc2cccc4ccccc24)O3)cc1`, in assay [1], the cytotoxicity call is “inactive”. Also, the growth inhibition call in assay [2] was “inactive”.

For the molecule `C[C@H](CO)N1C[C@H](C)[C@@H](CN(C)C(=O)NC2CCCCC2)OCCCC[C@H](C)Oc2ccc(NC(=O)Nc3ccccc3)cc2C1=O`, the cytotoxicity call in assay [1] is “inactive”. In addition, in assay [2], the growth inhibition call is “inactive”.

Take `Cl.Cl.Fc1ccc(C(c2ccc(F)cc2)N2CCN(CC=Cc3ccccc3)CC2)cc1`: the cytotoxicity call in assay [1] was “inactive”. In addition, the growth inhibition call in assay [2] is “inactive”.

Turning to `COc1cccc(-c2ccc3n(c2=O)C[C@H]2[C@H](CO)[C@@H](C(=O)NCC4CC4)[C@@H]3N2S(C)(=O)=O)c1`, the cytotoxicity call in assay [1] is “inactive”. In addition, the growth inhibition call in assay [2] was “inactive”.

Turning to `C#CC1(OC(C)=O)CCC2C3CCC4=CC(=O)CCC4C3CCC21C` (stereo not given), the cytotoxicity call in assay [1] was “inactive”. The growth inhibition call in assay [2] was “inactive”.

Turning to `COc1ccc(NC(=O)O[C@H]2[C@H](OC(=O)Nc3ccccc3-c3ccccc3)[C@H](OC(=O)Nc3ccccc3-c3ccccc3)[C@@H](OC)O[C@@H]2COC(=O)NCCCCCC(=O)NO)cc1`, the cytotoxicity call in assay [1] is “inactive”. Besides, the growth inhibition call in assay [2] was “inactive”.

With `COc1ccc(S(=O)(=O)Nc2ccc3c(c2)CC(=O)N([C@H](C)CO)C[C@H](C)[C@@H](CN(C)Cc2ccc(-c4ccccc4)cc2)O3)cc1`, in assay [1], the cytotoxicity call was “inactive”. Also, the growth inhibition call in assay [2] is “inactive”.

In the case of `C[C@H]1CN([C@@H](C)CO)C(=O)c2cccc(NS(=O)(=O)c3ccc(Cl)cc3)c2O[C@@H]1CN(C)Cc1ccc(C(F)(F)F)cc1`, the cytotoxicity call in assay [1] was “inactive”. The growth inhibition call in assay [2] was “inactive”.

As to `C[C@@H]1CCCCO[C@@H](CN(C)Cc2ccc(C(=O)O)cc2)[C@H](C)CN([C@H](C)CO)C(=O)c2cc(NC(=O)Nc3ccc(C(F)(F)F)cc3)ccc2O1`, in assay [1], the cytotoxicity call was “inactive”. Further, in assay [2], the growth inhibition call is “inactive”.

On to `C[C@@H]1CN([C@@H](C)CO)C(=O)c2cc(NC(=O)CCCCCC(=O)Nc3ccccc3N)ccc2O[C@@H](C)CCCCO[C@@H]1CN(C)CC1CCCCC1`, for which the cytotoxicity call in assay [1] was “inactive”. The growth inhibition call in assay [2] is “inactive”.

With `C[C@@H]1CN([C@H](C)CO)C(=O)c2cc(NC(=O)NC3CCCCC3)ccc2O[C@@H](C)CCCCO[C@@H]1CN(C)Cc1ccc(C(F)(F)F)cc1`, the cytotoxicity call in assay [1] was “inactive”. Further, the growth inhibition call in assay [2] is “inactive”.

As for `C[C@@H]1CCCCO[C@H](CN(C)C(=O)Cc2ccccc2)[C@@H](C)CN([C@H](C)CO)C(=O)c2cc(NS(=O)(=O)c3ccc(F)cc3)ccc2O1`, in assay [1], the cytotoxicity call is “inactive”. The growth inhibition call in assay [2] is “inactive”.

For `Cc1ccc(S(=O)(=O)N(C)C[C@@H]2Oc3ccc(NS(C)(=O)=O)cc3CC(=O)N([C@@H](C)CO)C[C@H]2C)cc1`, the cytotoxicity call in assay [1] is “inactive”. The growth inhibition call in assay [2] was “inactive”.

With `c1ccc2c(CSc3nc4ccccc4s3)cccc2c1`, the cytotoxicity call in assay [1] was “inactive”. Further, in assay [2], the growth inhibition call is “inactive”.

As for `C[C@@H]1CN([C@H](C)CO)C(=O)c2cc(C#CCc3ccccc3)cnc2O[C@H]1CN(C)C(=O)Cc1cccnc1`, the cytotoxicity call in assay [1] was “inactive”. Also, in assay [2], the growth inhibition call is “inactive”.

As to `O=C(O)c1ccnc(C(=O)O)c1`, the cytotoxicity call in assay [1] was “inactive”. The growth inhibition call in assay [2] was “inactive”.

On to `Cc1cc(C)nc(C#N)n1`, for which, in assay [1], the cytotoxicity call was “inactive”. In addition, the growth inhibition call in assay [2] was “inactive”.

For the molecule `Cc1ccc(S(=O)(=O)N(C)C[C@H]2Oc3ccc(NC(=O)NC(C)C)cc3C(=O)N([C@@H](C)CO)C[C@H]2C)cc1`, the cytotoxicity call in assay [1] was “inactive”. In addition, the growth inhibition call in assay [2] is “inactive”.

`NC(=O)N/N=C/c1ccc([N+](=O)[O-])o1`: in assay [1], the cytotoxicity call is “inactive”. Moreover, the growth inhibition call in assay [2] was “active”.

Turning to `COCC#Cc1ccc([C@@H]2[C@H]3CN(C(=O)c4ccncc4)CC(=O)N3[C@H]2CO)cc1`, the cytotoxicity call in assay [1] was “inactive”. Besides, the growth inhibition call in assay [2] is “inactive”.

As to `C[C@@H]1CN([C@@H](C)CO)C(=O)c2cc(C#Cc3cccnc3)cnc2O[C@@H]1CN(C)Cc1ccc(F)cc1`, the cytotoxicity call in assay [1] was “inactive”. In addition, the growth inhibition call in assay [2] was “inactive”.

Consider `C[C@H]1CCCCO[C@@H](CN(C)C(=O)C2CCCCC2)[C@@H](C)CN([C@@H](C)CO)C(=O)c2cc(NC(=O)Nc3ccccc3)ccc2O1`, for which, in assay [1], the cytotoxicity call is “inactive”. Besides, the growth inhibition call in assay [2] is “inactive”.

For the molecule `CSc1cccc(NC(=O)/C=C/c2ccc(C(C)C)cc2)c1`, in assay [1], the cytotoxicity call was “inactive”. Besides, the growth inhibition call in assay [2] is “inactive”.

Consider `C[C@H](CO)N1C[C@H](C)[C@H](CN(C)CC2CC2)Oc2ccc(NS(=O)(=O)c3ccccc3)cc2CC1=O`, for which, in assay [1], the cytotoxicity call is “inactive”. Moreover, the growth inhibition call in assay [2] is “inactive”.

As to `COc1cc2c(cc1O)[C@H](c1ccc(CN3CCCC3)cc1)N(Cc1cc3c(cc1Br)OCO3)CC2`, in assay [1], the cytotoxicity call was “inactive”. For the same molecule, the growth inhibition call in assay [2] is “inactive”.

In the case of `COc1ccccc1-c1ccc2c(c1)O[C@@H](CN(C)C(=O)c1ccncc1)[C@@H](C)CN([C@@H](C)CO)S2(=O)=O`, in assay [1], the cytotoxicity call was “inactive”. Also, the growth inhibition call in assay [2] is “inactive”.

In the case of `C[C@@H]1CCCCO[C@H](CN(C)C(=O)CCC(F)(F)F)[C@@H](C)CN([C@@H](C)CO)C(=O)c2cc(NC(=O)Cc3ccccc3)ccc2O1`, in assay [1], the cytotoxicity call was “inactive”. The growth inhibition call in assay [2] was “inactive”.

Take `Cc1cc(C(=O)N2CCCC[C@@H]2CCOc2cccc(CN(C)Cc3cccc4cccnc34)c2)c(=O)[nH]c1C`: the cytotoxicity call in assay [1] was “inactive”. In assay [2], the growth inhibition call is “inactive”.
